# Data from the supplement of paper PMC8728848.
# Some of the results follow.
# B1: DC-Sign (Homo sapiens), Q9NNX6 (protein)
# chain: MSDSKEPRLQQLGLLEEEQLRGLGFRQTRGYKSLAGCLGHGPLVLQLLSFTLLAGLLVQVSKVPSSISQEQSRQDAIYQNLTQLKAAVGELSEKSKLQEIYQELTQLKAAVGELPEKSKLQEIYQELTRLKAAVGELPEKSKLQEIYQELTWLKAAVGELPEKSKMQEIYQELTRLKAAVGELPEKSKQQEIYQELTRLKAAVGELPEKSKQQEIYQELTRLKAAVGELPEKSKQQEIYQELTQLKAAVERLCHPCPWEWTFFQGNCYFMSNSQRNWHDSITACKEVGAQLVVIKSAEEQNFLQLQSSRSNRFTWMGLSDLNQEGTWQWVDGSPLLPSFKQYWNRGEPNNVGEEDCAEFSGNGWNDDKCNLAKFWICKKSAASCSRDEEQFLSPAPATPNPPPA
# What was measured:
# Assay in all cases: glycan array binding signal (z-score within array); higher = stronger binding
# Conditions in all cases: glycan notation: IUPAC condensed, linker removed
# [1] = target: Gal6S(b1-4)Glc
# Outline: (§1)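 Columns mapping to the same glycan were averaged after glycan names were converted to IUPAC-condensed notation. The data come from 3228 arrays in the Consortium for Functional Glycomics database, limited to those with an available protein sequence. Binding is reported as a within-array Z-score averaged across arrays of one protein sequence and across linkers.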
# [2] = target: Gal6S(b1-4)Glc6S
# Outline: as §1
# [3] = target: Gal6S(b1-4)GlcNAc
# Outline: as §1
# [4] = target: Gal6S(b1-4)GlcNAc6S
# Outline: as §1
# [5] = target: GalNAc(a1-3)Gal
# Outline: as §1
# [6] = target: GalNAc(a1-3)GalNAc
# Outline: as §1
# [7] = target: GalNAc(a1-3)GalNAc(b1-3)Gal(a1-4)Gal(b1-4)Glc
# Outline: as §1
# [8] = target: GalNAc(a1-3)GalNAc(b1-3)Gal(a1-4)Gal(b1-4)GlcNAc
# Outline: as §1
# [9] = target: GalNAc(b1-3)Gal
# Outline: as §1
# [10] = target: GalNAc(b1-3)Gal(a1-4)Gal(b1-4)GlcNAc
# Outline: as §1
# [11] = target: GalNAc(b1-3)Gal(a1-4)Gal(b1-4)GlcNAc(b1-3)Gal(b1-4)Glc
# Outline: as §1
# [12] = target: GalNAc(b1-3)Gal(a1-6)Gal(b1-4)Glc
# Outline: as §1
# [13] = target: GalNAc(b1-3)GalNAc
# Outline: as §1
# [14] = target: GalNAc(b1-3)GlcNAc
# Outline: as §1
# [15] = target: GalNAc(b1-4)Gal(b1-4)Glc
# Outline: as §1
# [16] = target: GalNAc(b1-4)GlcNAc
# Outline: as §1
# [17] = target: GalNAc(b1-4)GlcNAc(b1-2)Man
# Outline: as §1
# [18] = target: GalNAc(b1-4)GlcNAc(b1-2)Man(a1-3)[GalNAc(b1-4)GlcNAc(b1-2)Man(a1-6)]Man(b1-4)GlcNAc(b1-4)GlcNAc
# Outline: as §1
# [19] = target: GalNAc(b1-4)GlcNAc(b1-3)GalNAc(b1-4)GlcNAc
# Outline: as §1
# [20] = target: GalNAc(b1-4)GlcNAc6S
# Outline: as §1
# [21] = target: GalNAc(b1-6)GalNAc
# Outline: as §1
# [22] = target: GalNAc3S(b1-4)GlcNAc
# Outline: as §1
# [23] = target: GalNAc3S(b1-4)GlcNAc3S
# Outline: as §1
# [24] = target: GalNAc3S(b1-4)[Fuc(a1-3)]GlcNAc
# Outline: as §1
# [25] = target: GalNAc4S6S(b1-4)GlcNAc
# Outline: as §1
# [26] = target: GalNAc6S(b1-4)GlcNAc
# Outline: as §1
# [27] = target: Glc(a1-4)Glc
# Outline: as §1
# [28] = target: Glc(a1-4)Glc(a1-4)Glc(a1-4)Glc
# Outline: as §1
# [29] = target: Glc(a1-6)Glc(a1-6)Glc
# Outline: as §1
# [30] = target: Glc(a1-6)Glc(a1-6)Glc(a1-6)Glc
# Outline: as §1
# [31] = target: Glc(b1-4)Glc
# Outline: as §1
# [32] = target: Glc(b1-6)Glc
# Outline: as §1
# [33] = target: GlcA(b1-3)Gal
# Outline: as §1
# [34] = target: GlcA(b1-3)GlcNAc
# Outline: as §1
# [35] = target: GlcA(b1-6)Gal
# Outline: as §1
# [36] = target: GlcA3S(b1-3)Gal(b1-4)GlcNAc(b1-2)Man
# Outline: as §1
# [37] = target: GlcA3S(b1-3)Gal(b1-4)GlcNAc(b1-3)Gal(b1-4)Glc
# Outline: as §1
binder,measurement,setting,value
B1,glycan array binding signal (z-score),[1],-0.17
same,glycan array binding signal (z-score),[2],-0.174
same,glycan array binding signal (z-score),[3],-0.101
same,glycan array binding signal (z-score),[4],-0.133
same,glycan array binding signal (z-score),[5],-0.158
same,glycan array binding signal (z-score),[6],-0.193
same,glycan array binding signal (z-score),[7],-0.133
same,glycan array binding signal (z-score),[8],-0.144
same,glycan array binding signal (z-score),[9],-0.158
same,glycan array binding signal (z-score),[10],-0.153
same,glycan array binding signal (z-score),[11],-0.17
same,glycan array binding signal (z-score),[12],-0.061
same,glycan array binding signal (z-score),[13],-0.179
same,glycan array binding signal (z-score),[14],-0.105
same,glycan array binding signal (z-score),[15],-0.131
same,glycan array binding signal (z-score),[16],-0.059
same,glycan array binding signal (z-score),[17],-0.17
same,glycan array binding signal (z-score),[18],-0.179
same,glycan array binding signal (z-score),[19],-0.064
same,glycan array binding signal (z-score),[20],-0.133
same,glycan array binding signal (z-score),[21],-0.17
same,glycan array binding signal (z-score),[22],-0.013
same,glycan array binding signal (z-score),[23],-0.101
same,glycan array binding signal (z-score),[24],-0.158
same,glycan array binding signal (z-score),[25],-0.16
same,glycan array binding signal (z-score),[26],-0.164
same,glycan array binding signal (z-score),[27],-0.193
same,glycan array binding signal (z-score),[28],-0.18
same,glycan array binding signal (z-score),[29],-0.156
same,glycan array binding signal (z-score),[30],-0.146
same,glycan array binding signal (z-score),[31],-0.193
same,glycan array binding signal (z-score),[32],-0.191
same,glycan array binding signal (z-score),[33],-0.193
same,glycan array binding signal (z-score),[34],-0.186
same,glycan array binding signal (z-score),[35],-0.184
same,glycan array binding signal (z-score),[36],-0.189
same,glycan array binding signal (z-score),[37],-0.201
